The results in this text go back to the GPR68 mutational scans of Howard et al. (2025).

The least precise scores are not listed. Two further conditions of the source, in which the scores hardly spread, are not listed. In variant names, del marks residues removed and ins residues inserted between the two positions. For some assays here: The data file names ogerin without a concentration.

To fix the notation:
B1: GPR68, Q15743 (parent)
chain: MGNITADNSSMSCTIDHTIHQTLAPVVYVTVLVVGFPANCLSLYFGYLQIKARNELGVYLCNLTVADLFYICSLPFWLQYVLQHDNWSHGDLSCQVCGILLYENIYISVGFLCCISVDRYLAVAHPFRFHQFRTLKAAVGVSVVIWAKELLTSIYFLMHEEVIEDENQHRVCFEHYPIQAWQRAINYYRFLVGFLFPICLLLASYQGILRAVRRSHGTQKSRKDQIQRLVLSTVVIFLACFLPYHVLLLVRSVWEASCDFAKGVFNAYHFSLLLTSFNCVADPVLYCFVSETTHRDLARLRGACLAFLTCSRTGRAREAYPLGAPEASGKSGAQGEEPELLTKLHPAFQTPNSPGSGGFPTGRLA

In series [1] the parent is B1. Put plainly: cAMP reporter score (Enrich2 score, wild type = 0); higher = more signal; HEK293T, FACS bins.
In series [2] the parent is B1. Kind of series: surface expression score (Enrich2 score, wild type = 0); higher = more signal; HEK293T, FACS bins.

R317M: the cAMP reporter score in series [1] (pH 5.5) is -0.42; in series [1] (pH 6), 0.381; in series [1] (pH 6.5, modulator: ogerin) it was 0.842. Moreover, the surface expression score in series [2] was -0.155.

Take R317Y: the cAMP reporter score in series [1] (pH 5.5) is -0.711; in series [1] (pH 6) it was -1.08; in series [1] (pH 6, modulator: ogerin), -1.01; in series [1] (pH 6.5, modulator: ogerin), -1.03. Further, the surface expression score in series [2] is -2.15.

As for R317Q, the cAMP reporter score in series [1] (pH 5.5) came to 0.349; in series [1] (pH 6), 1.91; in series [1] (pH 6, modulator: ogerin) it was 0.71; in series [1] (pH 6.5, modulator: ogerin) it was 0.931. In series [2], the surface expression score is 1.5.

Consider R317D, for which the cAMP reporter score in series [1] (pH 5.5) was -0.494; in series [1] (pH 6) it was -1.02; in series [1] (pH 6, modulator: ogerin), -0.178; in series [1] (pH 6.5, modulator: ogerin), -0.181. Besides, in series [2], the surface expression score amounted to 0.266.

Turning to R317V, the cAMP reporter score is 0.109 in series [1] (pH 5.5); -0.041 in series [1] (pH 6); 0.394 in series [1] (pH 6, modulator: ogerin); 0.029 in series [1] (pH 6.5, modulator: ogerin). Further, in series [2], the surface expression score is -0.237.

Consider R317I, for which the cAMP reporter score in series [1] (pH 5.5) is 0.491; in series [1] (pH 6) it was -0.236; in series [1] (pH 6, modulator: ogerin) it was 0.577; in series [1] (pH 6.5, modulator: ogerin), 0.196. The surface expression score in series [2] was -0.399.

Turning to R317C, the cAMP reporter score is -1.14 in series [1] (pH 5.5); -0.697 in series [1] (pH 6); -1.42 in series [1] (pH 6, modulator: ogerin); -0.924 in series [1] (pH 6.5, modulator: ogerin). Further, in series [2], the surface expression score was -0.749.

Regarding R317W, the cAMP reporter score in series [1] (pH 5.5) was 1.68; in series [1] (pH 6, modulator: ogerin) it was 1.34; in series [1] (pH 6.5, modulator: ogerin), 0.732. In series [2], the surface expression score turned out to be 0.008.

Take R317E: the cAMP reporter score in series [1] (pH 5.5) is 0.362; in series [1] (pH 6), -0.723; in series [1] (pH 6, modulator: ogerin) it was 0.601; in series [1] (pH 6.5, modulator: ogerin) it was -0.612. Moreover, the surface expression score in series [2] amounted to 0.405.

In the case of R317P, the cAMP reporter score in series [1] (pH 5.5) came to 1.44; in series [1] (pH 6) it was 1.55; in series [1] (pH 6, modulator: ogerin), 2.67; in series [1] (pH 6.5, modulator: ogerin), 0.246. Besides, in series [2], the surface expression score was found to be 1.84.

R317K: the cAMP reporter score in series [1] (pH 5.5) is -0.482; in series [1] (pH 6) it was 1.94; in series [1] (pH 6, modulator: ogerin) it was 0.321; in series [1] (pH 6.5, modulator: ogerin), 0.508. Moreover, the surface expression score in series [2] was -0.419.

Regarding R317N, the cAMP reporter score in series [1] (pH 5.5) is 0.113; in series [1] (pH 6), 0.321; in series [1] (pH 6, modulator: ogerin), 0.106; in series [1] (pH 6.5, modulator: ogerin) it was 0.252. In series [2], the surface expression score turned out to be 0.506.

Take R317T: the cAMP reporter score stood at 0.071 in series [1] (pH 5.5); 0.227 in series [1] (pH 6); 0.92 in series [1] (pH 6, modulator: ogerin); 0.192 in series [1] (pH 6.5, modulator: ogerin). Moreover, the surface expression score in series [2] came to 0.535.

As to R317S, the cAMP reporter score in series [1] (pH 5.5) turned out to be 1.29; in series [1] (pH 6) it was 1.36; in series [1] (pH 6, modulator: ogerin), 1.21; in series [1] (pH 6.5, modulator: ogerin), 0.865. For the same variant, the surface expression score in series [2] was 0.543.

Take R317H: the cAMP reporter score in series [1] (pH 5.5) is 0.731; in series [1] (pH 6), -0.755; in series [1] (pH 6, modulator: ogerin), 0.053; in series [1] (pH 6.5, modulator: ogerin), -0.277. For the same variant, in series [2], the surface expression score stood at 0.09.

For the variant E318_Y320del, the cAMP reporter score in series [1] (pH 5.5) stood at 1.33; in series [1] (pH 6), 0.124; in series [1] (pH 6, modulator: ogerin), 1.03; in series [1] (pH 6.5, modulator: ogerin), 0.734. Further, the surface expression score in series [2] came out at 0.344.

In the case of C310del, the cAMP reporter score in series [1] (pH 5.5) was -0.176; in series [1] (pH 6) it was 1.56; in series [1] (pH 6, modulator: ogerin), -0.002; in series [1] (pH 6.5, modulator: ogerin), 0.957. Also, the surface expression score in series [2] is -0.475.

For the variant A319N, the cAMP reporter score was -0.12 in series [1] (pH 5.5); 0.637 in series [1] (pH 6); -0.699 in series [1] (pH 6, modulator: ogerin); -0.208 in series [1] (pH 6.5, modulator: ogerin). For the same variant, the surface expression score in series [2] is -0.056.

A319F: the cAMP reporter score in series [1] (pH 5.5) was -0.347; in series [1] (pH 6), -1.17; in series [1] (pH 6, modulator: ogerin) it was -0.927; in series [1] (pH 6.5, modulator: ogerin), -1.45. The surface expression score in series [2] was -1.03.

Consider A319C, for which the cAMP reporter score is -0.344 in series [1] (pH 5.5); -0.469 in series [1] (pH 6); 0.024 in series [1] (pH 6, modulator: ogerin); -0.109 in series [1] (pH 6.5, modulator: ogerin). In addition, in series [2], the surface expression score was determined as 0.566.

With A319H, the cAMP reporter score in series [1] (pH 5.5) is 0.977; in series [1] (pH 6), -0.056; in series [1] (pH 6, modulator: ogerin), 0.161; in series [1] (pH 6.5, modulator: ogerin) it was 1.33.

With A319R, the cAMP reporter score in series [1] (pH 5.5) turned out to be 0.451; in series [1] (pH 6), 0.359; in series [1] (pH 6, modulator: ogerin) it was 0.411; in series [1] (pH 6.5, modulator: ogerin) it was 0.258. Moreover, the surface expression score in series [2] was -0.253.

Take A319L: the cAMP reporter score in series [1] (pH 5.5) is 0.342; in series [1] (pH 6), -0.559; in series [1] (pH 6, modulator: ogerin) it was 0.689; in series [1] (pH 6.5, modulator: ogerin) it was 0.533. In series [2], the surface expression score is -0.066.

As for A319M, the cAMP reporter score in series [1] (pH 5.5) was determined as 0.604; in series [1] (pH 6) it was 0.704; in series [1] (pH 6, modulator: ogerin) it was 1.35; in series [1] (pH 6.5, modulator: ogerin), 0.78. The surface expression score in series [2] came out at 0.45.

For A319K, the cAMP reporter score in series [1] (pH 5.5) was determined as 0.981; in series [1] (pH 6), 0.867; in series [1] (pH 6, modulator: ogerin), 0.301; in series [1] (pH 6.5, modulator: ogerin) it was 1.43.

Regarding A319E, the cAMP reporter score in series [1] (pH 5.5) came to 0.193; in series [1] (pH 6, modulator: ogerin) it was 0.339; in series [1] (pH 6.5, modulator: ogerin), 0.436. The surface expression score in series [2] worked out at 0.102.

Take A319D: the cAMP reporter score in series [1] (pH 5.5) was 0.505; in series [1] (pH 6) it was -0.18; in series [1] (pH 6, modulator: ogerin), 0.569; in series [1] (pH 6.5, modulator: ogerin), 1.17. In addition, the surface expression score in series [2] was determined as 0.618.

As for A319Q, the cAMP reporter score in series [1] (pH 5.5) is -0.455; in series [1] (pH 6), 0.029; in series [1] (pH 6, modulator: ogerin) it was 0.49; in series [1] (pH 6.5, modulator: ogerin), -0.163. Further, the surface expression score in series [2] is -0.098.

As to A319I, the cAMP reporter score in series [1] (pH 5.5) is 0.776; in series [1] (pH 6, modulator: ogerin), 0.046; in series [1] (pH 6.5, modulator: ogerin), -0.324. For the same variant, the surface expression score in series [2] was -0.116.

Take A319P: the cAMP reporter score in series [1] (pH 5.5) was 0.349; in series [1] (pH 6) it was 0.583; in series [1] (pH 6, modulator: ogerin) it was 0.523; in series [1] (pH 6.5, modulator: ogerin), 0.516. The surface expression score in series [2] was found to be 0.107.

Take S311_R312del: the cAMP reporter score is -0.635 in series [1] (pH 5.5); -0.548 in series [1] (pH 6); 0.22 in series [1] (pH 6, modulator: ogerin); -0.332 in series [1] (pH 6.5, modulator: ogerin). In addition, in series [2], the surface expression score was -1.04.
